The results in this text go back to the supplement of paper PMC10126150.

Values marked as one replicate rest on one cluster of the flow cell; about a third of the high ones do not repeat.

This data set has as its system ATP. Kind of data set: switch fluorescence ratio, 500 uM ATP over buffer (Cy3 cluster intensity, sum of 5 cycles each) (fold (ratio)); higher = stronger signal-on switching upon ATP binding; sequences stand for … in TCGTCGGCAGCGTCAGATGTGTATAAGAGACAGTTTTTTTTTTTTTTTTTTTTTTTTT…TC. Particulars: aptamer strand: ATP DNA aptamer (quencher-CACCTGGGGGAGTATTGCGGAGGAAGG + anchor), 100 nM annealed; ATP concentration: 500 uM; one replicate. In short, it runs like this:
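Exposure to 500 uM ATP lasted 15 min at 22 °C before imaging, and a selection-buffer image was taken beforehand, for Cy3-labelled switching-strand clusters on a modified Illumina MiSeq flow-cell annealed to 100 nM quencher-labelled ATP aptamer. Five buffer/ATP cycles were run with NaOH stripping and re-annealing between them. The fluorescence ratio per cluster is summed target-cycle over summed buffer-cycle Cy3 intensity, averaged per switch-domain sequence. Clusters outside 100-1000 RFU were excluded.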
For the sequence CTCTACCTGT, the switch fluorescence ratio came to 1.
Regarding TCGATGGGGT, the switch fluorescence ratio stood at 1.
Regarding GGTATAGAAC, the switch fluorescence ratio amounted to 1.
As for GTGTTAACAC, the switch fluorescence ratio came out at 1.14.
Consider GGGCCGTGCG, for which the switch fluorescence ratio came out at 1.
With TACTTAAGGG the figure was 1.01; with TAAACTGTCT, 1.03.
Take TTAGATGTCA: the switch fluorescence ratio was 0.993.
As to CGCGGCACTT, the switch fluorescence ratio is 1.02.
With TCTATGATCA the figure was 0.988; with TAAGAGGCTG, 0.945; with TGGACTGCGT, 0.971.
With CAAGAAGCCA the figure was 1.01; with CTGCCAAGAG, 1.12.
Under CCACGGATGG stands 0.973; under CAAAAAACG, 0.996.
Take TTTTGTCTAA: the switch fluorescence ratio worked out at 1.
CGTTATCAAA: the switch fluorescence ratio was found to be 0.993.
With ACCTAACGCA the figure was 1.67; with GGTACTCAAG, 1.05; with TAAAGTTTCC, 1.39.
On to GCGCCAGTTC, for which the switch fluorescence ratio was 1.07.
Under ATACTGGCG stands 1.11; under TGCTAAAGAA, 0.972.
GATCATGATA: the switch fluorescence ratio was 1.02.
With TTGGACGTAG the figure was 1.01; with AGAGCGTCCT, 1.03; with AGGTTACAGT, 1.06.
With GCAGAAAATG the figure was 0.976.
For the sequence GTTCTCAGG, the switch fluorescence ratio was 1.05.
Under TTTATTACTC stands 1.05.
With TATTATGATA the figure was 1.02; with TTTGATACCG, 0.995.
Under CGCGTTCACT stands 1.04; under ATTAACTGGT, 1.05; under ACGTGATTAC, 2.24.
Consider TCAAAACAGG, for which the switch fluorescence ratio came out at 1.05.
With AAGAGTAAG, the switch fluorescence ratio worked out at 0.991.
In the case of ACCGAGGGCC, the switch fluorescence ratio came out at 1.03.
In the case of CCTTGGAAAA, the switch fluorescence ratio came out at 0.989.
As to AGTGCTTACT, the switch fluorescence ratio is 1.
Under AGGTTGCGG stands 0.977.
CAGCGTAGGG: the switch fluorescence ratio worked out at 1.02.
With GAAAAGCCCG the figure was 1.06; with GTTCACCTC, 0.979.
With GAATAGAGAG the figure was 1.02.
Under GCCTATAGG stands 1.01; under CGTTAGCGTC, 1.03; under TTCTCGCCGT, 0.954.
With TAAGAAACAG, the switch fluorescence ratio came out at 0.999.
With GCAGAAAGGC the figure was 1.16.
Under TGTCACAACT stands 1.05.
With TGGTCCGGCG the figure was 0.998; with GCCTGACACG, 1.12.
Regarding CCGTATGTCA, the switch fluorescence ratio is 0.991.
Under CGGGTGAACG stands 0.975.
Under AAACATCCAA stands 1.02; under GATGACCAA, 1; under AGGAGATAAT, 0.992.
With CGTTCATGTT the figure was 1.01; with TCGTATCCA, 0.99; with CATCGTTTTC, 0.982.
As for CGAACGCTAT, the switch fluorescence ratio was 4.24.
On to GTAGTTGTAG, for which the switch fluorescence ratio amounted to 0.991.
With CAGGGTAAGA the figure was 0.989; with ACTGAACCTG, 1.17.
With CGTAAGAAAC the figure was 3.65.
